# Source: PubChem BioAssay (NCI)
# Some structures have more than one record in an assay (separate samples or runs), and their calls can disagree.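 Activity criterion: percent growth below 10, measured after cells in 96-well plates were exposed to a single compound concentration for 48 hours.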 The source holds more than one record for some entries. The list is limited to them. An entry can have further records. This drug was run again and again over the years, at the concentration stated with the values; each value is one run. Marks such as (2×) count equal records among those shown.
# Key:
# [1] = test system: CAKI-1 renal; experiment: NCI-60 one-dose screen, 48 h (100 = growth as untreated, 0 = no growth, -100 = all killed); conditions: 25 µM
# [2] = test system: A498 renal; experiment: as above; conditions: 0.25 µM
compound,measurement,setting,value
COc1cccc2c1C(=O)c1c(O)c3c(c(O)c1C2=O)C[C@@](O)(C(=O)CO)C[C@@H]3OC1CC(N)C(O)C(C)O1 (stereo not given in full),growth,[1]; runs of 1992,"inactive: 16.7, 10.2, 10.5 (2×), 14.1, 10.8, 13.8, 29.4, 12.6, 23.7, 123, 13.5% and active: 6.25, 5.85, -40.7, -20, -42.4, -32.5, -27.2, 9.27, 2.42, -17, -25.7 (2×), 2.39, -1.74, 1.75, -12.2, -20.1, -29.7, -7.01, 5.12, -26.4, -28.1, -43.9, 0.949, -21.5, -18.4, 6.02, 2.41, -23.6, 4.41, -11.1, -1.18, 7.04, 6, 1.91, 8.4, 3.96, 8.3, -12.6, -6.82, -7.13, 4.5, -45.9, -67.3, -66.5, -73.6, -11.7 (2×), -0.0928, 4.94, -3.91, 2.08, -15.5, -9.23, -0.433, -16.4, -13.3, -0.901, 0.0857, 6.75, -21.1, -6.51, -2.89, 1.79, 0.105, 2.86, -11.5, -23.8, -25.6, 0.975, 2.69, -23.5, -39.9, -7.05, 3.93, -11, -4.44, -29.1, -0.924, -41.6, -2.21, -5.77, -3.67, 6.15, -4.08, -31.6, -9.34%"
same,growth,[1]; runs of 1993,"active: -17.1, 1.77, -30.1, -16.3, 0.996, -7.49, 9.06, 5.86, 5.28, 6.93, -17.3, 2.32, -13.2, -32.7, -10.3, 2.45, -9.61, -4.03, 8.61, -48.1, 7.81, 5.55, -7.07, -4.81, -23.3, -0.912, -12, -12.2, -24.6, -4.76, -1.14, -2.36, 2.07, -7.74, -40.9%"
same,growth,[1]; runs of 1994,"active: 1.7, -38.5 (2×), 3.2, 6.59, -27.8, -18.1, 7.33, 0.269, -14.1, 2.2, -6.33, -8.61, -38.4, -17.8, -0.648, -12.7, -5.86, 5.54, -9.93, -8.74, -11.8, -24.7, 1.73, -12.1, 6.9% and inactive: 76.1%"
same,growth,[1]; runs of 1995,"active: -29.9, -20.4, -7.41, -19.3, -16.2, -37.4, -27.7, -31.8, -5.42, 4.86, -11, 2.25, -21.6, -20.9, 5.46, -3.4, -15.8, -7.26, 0.706, 4.54, 0.508, -32.9, -49.8, -41.9, -47.8, -17.2, -7.44, -34.3, -8.16, -33.6, 1.42, -7.54% and inactive: 12.4, 65.2, 45.2, 12.7, 16.4%"
same,growth,[1]; runs of 1996,"active: -24.4, -6.92, -56.9, 9.02, -5.53, -15.9, -57.3, 1.66, -22.4, -13.5, -10.1, 3.5, -0.482, -13.2, 2.41, -15.1, 9.64, -21, -12.5, 9.24, -50.8, 7.41, -8.57, 5.88, -10.9, 2.88, -39.9, -30.4, -44.7, 9.93, -12.2, -32.2, 2.48, -18.1, 2.7, -8.38, -5.17, -7.83, -18.4, -3.29, -16.7, -18.5, -8.56, 0.225, -16.1, -2.11, 9.31% and inactive: 85.1, 21.5, 21.4, 13.8, 56.7, 20.7, 22.3, 20.1%"
same,growth,[1]; runs of 1997,"active: -13.4, -5.11, 2.93, -20.2, -11, -25.4, -20.9, -14.3, -19.3, -31.1, -15.1, -13.6, -6.17, -17.8, -3.77, -50.6, -61.5, -0.67, -40.6, -33.4, -5.1, -1.61, -15.9, -69.9, -26.6, -23.4, -12.7 (2×), -35.1, 4.28, 5.01, 0.947, -10, -21, -6.04, -18.8, -12.8, -7.58, -23, -14.5, -17.4, 4.7, 4.42% and inactive: 18.9%, 71.8%, 32.9%"
same,growth,[1]; runs of 1998,"active: -19.2, 1.95, -2.93, -57.8, -39.4, -28.8, -37.5, -35.1, -9.06, -25.2, 1.98, 4.66, -16.2, 1.43, -26.2, 2.89, -2.17, -8.29, -15.4, -19.7% and inactive: 12.4, 11.9, 16.4, 10.2%"
same,growth,[1]; runs of 1999,"active: -0.756, -17.2, 5.62, 2.18, -36.9, -56.5, -65.1, -60.5, -92, -52.2, 8.97, 0.433, -16.7, -100, 0.89, -70%"
same,growth,[1]; runs of 2000,"active: -8.82, -100, 6.77, -76.5%"
same,growth,[2]; runs of 2006,active: -4.74% and inactive: 51.8%
same,growth,[2]; runs of 2007,"inactive: 22.2, 37.8, 41.6 (2×), 34.5, 24, 48, 53.7, 54.1, 36.4, 49.9, 37, 39.9, 16.6, 147, 38.5, 25.9, 67.4, 11.8, 46.1, 30.3, 42.6, 14.4, 36.1, 22.7, 58.5 (2×), 57.8, 58.4, 61.8, 57.1, 56, 36.7, 45.5, 59.6, 48.8, 18.8, 25.4, 46.9, 34.7, 37.6, 33.8, 43.6, 72.2, 57.9% and active: 1.65%"
same,growth,[2]; runs of 2008,"inactive: 51.9, 62.5, 52.5, 46.7 (2×), 60.1, 61.9 (2×), 55.5, 18.8, 32.4, 48.5, 70.9 (2×), 50.7 (2×), 61.2, 46.5, 49.7, 58.4, 38.1, 74.5, 66, 64.4, 67, 57.1, 60.2, 64.3, 44.5, 48.3, 45.5, 117, 54.7, 37.2, 55.9, 19.9, 12.6, 66.8, 53.1, 36.6, 30.3, 14.3, 57.6, 54.1, 26.6, 46.9, 63, 59.5, 73.1, 56.8, 16.4, 29.5, 40.2, 60.6, 58.6, 19.1, 65.1%"
same,growth,[2]; runs of 2009,"inactive: 52.7, 50.7, 40.8, 38.8, 42.5, 59 (3×), 60.6, 63.2 (2×), 54.8, 56, 74.5, 58, 63, 42.4, 56.5 (2×), 49.8, 53.9, 41.4, 81.8, 59.9, 32.4, 43.1, 56.9, 50.9, 57.4 (2×), 60.8 (2×), 47.8, 62.6 (2×), 78.7, 55.3, 46, 58.3, 54.7 (2×), 29.5, 23.8, 57.5 (2×), 63.4, 50.1, 59.3, 32.9, 53.4, 33, 29.9, 25.9, 41.9, 80.2, 55.8, 42, 35, 46.9, 15.7, 94.7, 72.4, 49.6, 53.1, 34, 47.9, 50.8, 37.9, 54.3% and active: -1.98%, 2.47%"
same,growth,[2]; runs of 2010,"inactive: 68.1, 66.4, 40.9 (2×), 67.8, 52.9, 57, 55.2, 73.6, 52.7, 68.3, 64.3, 80.5, 78.4, 51, 56.2 (2×), 59.3, 50.8, 74.2, 37.7, 50, 43.6, 75.6, 70.5, 65, 35, 54.2, 78.7, 60.4, 55.5, 39.9, 30.2, 54.4, 42.4, 71.2, 43.8, 62.6, 36.4, 57.6, 64.1, 45.5, 59.5, 60.7, 20.9, 49.2, 66.7, 65.9, 56, 47, 38.4, 33, 58.9, 49.9, 46.7%"
same,growth,[2]; runs of 2011,"inactive: 54.7, 57.6, 64.7, 40.9, 47.6, 67.8, 56, 30.4, 32.3, 59.5, 65.6, 62.3, 72.5, 66.6, 66.7, 57.3, 63.5, 73.4, 56.7, 63, 66.3, 66, 57.5, 62.1, 59.2, 59, 55.8, 60.6, 69.5, 44.6, 42.6, 50.7, 47.8, 48, 49.3, 58.4, 44.1, 71.7, 52.3, 74.1, 43.8, 40.2, 31.6, 43.3, 36, 41.5, 31.2, 36.4, 24.8, 54.8, 65.5, 48.9, 60.3, 51.5, 59.1, 53, 17.6, 24.7, 23.2%"
